# Laboratory results: the antibiotic and cytotoxicity screens of Wong et al. (2023)
# Some of the results follow.
# Key:
# HSkMC = human skeletal muscle cells; test: cytotoxicity call (relative viability < 0.9); details: 10 µM
# HepG2 = test: cytotoxicity call (relative viability < 0.9); details: 10 µM
# S. aureus RN4220 = test: growth inhibition call (relative growth <= 0.2); details: 50 µM
SMILES,cytotoxicity call (HSkMC),cytotoxicity call (HepG2),growth inhibition call (S. aureus RN4220)
COc1cccc(NC(=O)N2C[C@H](O)COC[C@H]3O[C@@H](CC(=O)NC4Cc5ccccc5C4)CC[C@@H]32)c1,inactive,inactive,inactive
COc1ccc(CNC(=S)NN)cc1,inactive,inactive,inactive
C[C@H](CO)N1C[C@H](C)[C@H](CN(C)C(=O)Nc2cccc3ccccc23)Oc2ccc(NC(=O)Cc3ccccc3)cc2C1=O,inactive,inactive,inactive
CC(C)C#Cc1ccc2c(c1)O[C@H](CN(C)C(=O)c1cnccn1)[C@@H](C)CN([C@@H](C)CO)S2(=O)=O,inactive,inactive,inactive
Cc1noc(C)c1S(=O)(=O)Nc1ccc2c(c1)CC(=O)N([C@H](C)CO)C[C@@H](C)[C@@H](CN(C)CC1CC1)O2,inactive,inactive,inactive
CCCCC/C=C/C/C=C/C/C=C/C/C=C/CCCC(=O)O[C@H](CO)COC(=O)CCCCCCCCCCCCCCCCC,inactive,inactive,inactive
C[C@@H]1CN([C@H](C)CO)C(=O)Cc2cc(NS(=O)(=O)c3ccc(F)cc3)ccc2O[C@H]1CN(C)CC1CC1,inactive,inactive,inactive
C[C@H]1CN([C@@H](C)CO)C(=O)c2cccc(NS(C)(=O)=O)c2O[C@H]1CN(C)C(=O)Nc1ccc2c(c1)OCO2,inactive,inactive,inactive
C[C@@H]1CCCCO[C@@H](CN(C)C(=O)NC2CCCCC2)[C@H](C)CN([C@@H](C)CO)C(=O)c2cc(NC(=O)Nc3ccc4c(c3)OCO4)ccc2O1,inactive,inactive,inactive
[N-]=[N+]=Nc1ccccc1[C@@H]1OC(c2ccc(OCCCO)cc2)=N[C@]1(Cc1ccccc1)C(=O)N1CCCCC1,inactive,inactive,inactive
CC(C)NC(=O)Nc1ccc2c(c1)C(=O)N([C@H](C)CO)C[C@@H](C)[C@@H](CN(C)C(=O)Nc1ccc3c(c1)OCO3)O2,inactive,inactive,inactive
C[C@H](CO)N1C[C@H](C)[C@H](CN(C)S(=O)(=O)c2ccccc2C#N)OCc2cnnn2CCCC1=O,inactive,inactive,inactive
C[C@H]1CN([C@@H](C)CO)C(=O)c2cccc(NC(=O)Nc3ccc4c(c3)OCO4)c2O[C@H]1CN(C)Cc1ccc(Oc2ccccc2)cc1,inactive,active,inactive
COC(=O)c1cccc(C(=O)OC)n1,inactive,inactive,inactive
C[C@H](CO)N1C[C@H](C)[C@H](CN(C)S(C)(=O)=O)Oc2c(NS(=O)(=O)c3ccccc3)cccc2C1=O,inactive,inactive,inactive
C[C@@H]1CN([C@H](C)CO)C(=O)c2cc(NC(=O)NC3CCCCC3)ccc2O[C@@H](C)CCCCO[C@H]1CN(C)S(=O)(=O)c1ccc(F)cc1,inactive,inactive,inactive
CC(C)NC(=O)N(C)C[C@@H]1OCCCC[C@H](C)Oc2ccc(NS(C)(=O)=O)cc2C(=O)N([C@@H](C)CO)C[C@@H]1C,inactive,inactive,inactive
C[C@H]1CN([C@@H](C)CO)C(=O)c2cc(NC(=O)c3ccncc3)ccc2O[C@@H]1CN(C)S(=O)(=O)c1ccc(F)cc1,inactive,inactive,inactive
Cc1cc(=O)oc2c(O)c(O)ccc12,inactive,active,inactive
C[C@@H]1CCCCO[C@@H](CN(C)S(=O)(=O)c2ccc(Cl)cc2)[C@@H](C)CN([C@@H](C)CO)C(=O)c2cc(NC(=O)Nc3ccccc3)ccc2O1,inactive,inactive,inactive
COc1cccc(S(=O)(=O)Nc2ccc3c(c2)[C@H]2C[C@H](CC(=O)N4CCCCC4)O[C@@H](CO)[C@H]2O3)c1,inactive,inactive,inactive
CC(=O)c1ccc2ccccc2c1,inactive,inactive,inactive
Cc1ccc(S(=O)(=O)N2C[C@@H](O)COC[C@@H]3O[C@@H](CC(=O)NCCCN(C)C)CC[C@H]32)cc1,inactive,inactive,inactive
Nc1ccc(Oc2ccc3ccccc3c2Cl)c(Cl)c1,inactive,inactive,active
CN1C(=O)c2cc(NC(=O)c3ccc(C(F)(F)F)cc3)ccc2OC[C@@H]2O[C@H](CC(=O)NC3Cc4ccccc4C3)CC[C@H]21,inactive,inactive,inactive
Cc1cc(C(=O)Nc2cccc3c2O[C@H](CN(C)Cc2ccc(Oc4ccccc4)cc2)[C@@H](C)CN([C@@H](C)CO)C3=O)n(C)n1,inactive,inactive,inactive
CO[C@@H]1[C@H](O[P@@](=O)(S)OC[C@H]2O[C@@H](n3cnc4c(N)ncnc43)C[C@@H]2O)[C@@H](CO)O[C@H]1n1ccc(=O)[nH]c1=O,active,active,inactive
